Measurements reported in the RNAGym collection of RNA variant scans (doi:10.7554/elife.90254).
Read counts are not given, so values of variants with three or more changes are uncertain.

B1: LINE1-mini (parent)
chain: GGCAGAGCUCAACACAGCGUGGCAAAGUGGCUGUGGCUAGACUGCC

Variants of: B1
Test: self-cleavage, relative activity (ratio to wild type); higher = more cleavage; in vitro, sequencing; the parent is a self-cleaving ribozyme

**Q.** With GGCAGGGCUCAACACAGCUUGGCAAAGUAGCUGUGGCUAGACUGCC [A6G G19U G29A] as the variant, how does the self-cleavage read?
**A.** Its self-cleavage is 0.04.

**Q.** Which self-cleavage does the source give for GGCAGGGCUCAACACAGCUUGGCAAAGUCGCUGUGGCUAGACUGCC [A6G G19U G29C] here?
**A.** Its self-cleavage is 0.01.

**Q.** For GGCAGGGCUCAACACAGGGUGGCAAGGUGGCUGUGGCUAGACUGCC [A6G C18G A26G], which self-cleavage is on record?
**A.** The self-cleavage was 0.02.

**Q.** Which self-cleavage does the source give for GGCAGGGCUCAACACAGCGUGGCAAAGUGGUUGUGGCAAGACUGCC [A6G C31U U38A] here?
**A.** Its self-cleavage is 0.08.

**Q.** Which self-cleavage does the source give for GGCAGGGCUCAACACAGCGUGGAAAAAUGGCUUUGGCUAGACUGCC [A6G C23A G27A G33U] here?
**A.** Its self-cleavage is 0.08.

**Q.** With GGCAGGGCUCAACACAGCGUGACAAAGUGGCUGAGGCUAGUCUGCC [A6G G22A U34A A41U] as the variant, how does the self-cleavage read?
**A.** The self-cleavage was 0.05.

**Q.** With GGCAGGGCUCAACACAGCGUGGAAAAGUGCCUGUGGCUAGACUGCC [A6G C23A G30C] as the variant, how does the self-cleavage read?
**A.** Its self-cleavage is 0.12.

**Q.** With GGCAGGGCUCAACACAGCGUCGCAAAGUGGCUGUGGCUAGGCUGCC [A6G G21C A41G] as the variant, how does the self-cleavage read?
**A.** Its self-cleavage is 0.13.

**Q.** With GGCAGGGCUCAACACAGCUGGACAAGGUGGCUGUGGCUAAACUGCC [A6G G19U U20G G22A A26G G40A] as the variant, how does the self-cleavage read?
**A.** The self-cleavage was 0.07.

**Q.** With GGCAGGGCUCAACACAGGUUGGCAAAGUGUCUGUGGCUAAACUGCC [A6G C18G G19U G30U G40A] as the variant, how does the self-cleavage read?
**A.** The self-cleavage was 0.06.

**Q.** For GGCAGGGCUCAACACAGCGUGUCAAAGUGGCUGUGGCUACUCUGCC [A6G G22U G40C A41U], which self-cleavage is on record?
**A.** The self-cleavage was 0.13.

**Q.** With GGCAGGGCUCAACACAACGUGGCAAAGUGGCUGUGGCUAGACUGAC [A6G G17A C45A] as the variant, how does the self-cleavage read?
**A.** The self-cleavage was 0.04.

**Q.** For GGCAGGACUCAUCACAGCGUGGCAAGGUGGCUGUUGCUAGACUGCC [A6G G7A A12U A26G G35U], which self-cleavage is on record?
**A.** The self-cleavage was 0.03.

**Q.** With GGCAGGACUCAACACAGCGUGGCAAAAUGGCUGUGGCUAGACUGCC [A6G G7A G27A] as the variant, how does the self-cleavage read?
**A.** The self-cleavage was 0.05.

**Q.** With GGCAGGAGUCAACACAGCGUGGCAAAGUGGCUGUGGCUAGACUGCC [A6G G7A C8G] as the variant, how does the self-cleavage read?
**A.** Its self-cleavage is 0.15.

**Q.** With GGCAGGGCUCAACACAGCGUGGCAAAGUGGUUGUGGCUAGACUACC [A6G C31U G44A] as the variant, how does the self-cleavage read?
**A.** Its self-cleavage is 0.03.

**Q.** For GGCAGGCCUCAACACAGCGUGGCAAAGUGGCUGAGGCUAGACUGCA [A6G G7C U34A C46A], which self-cleavage is on record?
**A.** The self-cleavage was 0.

**Q.** Which self-cleavage does the source give for GGCAGGGCUCAACACAACGUGGCAAAGUGGCUUUGGCUAGACUGAC [A6G G17A G33U C45A] here?
**A.** Its self-cleavage is 0.03.

**Q.** For GGCAGGGCUCAACACAGCGUGGCAAAGUGGCUGUGACUAGACUGCA [A6G G36A C46A], which self-cleavage is on record?
**A.** Its self-cleavage is 0.12.

**Q.** With GGCAGGGCUCAACACAGUGUGGCAAAUUGGGUGUGGCUAGACUGCC [A6G C18U G27U C31G] as the variant, how does the self-cleavage read?
**A.** Its self-cleavage is 0.01.

**Q.** Which self-cleavage does the source give for GGCAGGGCUCAACACAGCAUGGCAAAGGGGCUGUGGCCAGACUGCC [A6G G19A U28G U38C] here?
**A.** The self-cleavage was 0.21.

**Q.** With GGCAGGGCUCAACACAGCGUGGCAAAGUGGUUGUGGCUAGAUUGCC [A6G C31U C42U] as the variant, how does the self-cleavage read?
**A.** The self-cleavage was 0.01.

**Q.** For GGCAGGUCUCAACACAGCGUGGCAAAGUGGGUGUGGCUAGACUGCC [A6G G7U C31G], which self-cleavage is on record?
**A.** The self-cleavage was 0.08.

**Q.** For GGCAGGGCUCAACACAGCGUGGCAAAGUGGCUGUGACUAGCCUGCC [A6G G36A A41C], which self-cleavage is on record?
**A.** Its self-cleavage is 0.04.

**Q.** Which self-cleavage does the source give for GGCAGGGCUCAACACAGCGUGGCAAAAUGGCUGUGGGUAUACGGCC [A6G G27A C37G G40U U43G] here?
**A.** Its self-cleavage is 0.08.

**Q.** For GGCAGGGCUCAACACAGCGUGGGACAGUGGCUCUGGCUAGACUGCC [A6G C23G A25C G33C], which self-cleavage is on record?
**A.** The self-cleavage was 0.04.

**Q.** Which self-cleavage does the source give for GGCAGGGCUCAACACAGCGUGGAAAAGCGGCUGUGGCUAGACUGCC [A6G C23A U28C] here?
**A.** Its self-cleavage is 0.07.

**Q.** For GGCAGGGCUCAACACAGCGUCGCAUAGUGGCUGUGGCUAGACUGCC [A6G G21C A25U], which self-cleavage is on record?
**A.** The self-cleavage was 0.06.

**Q.** With GGCAGGUCUCAAUACAGCGUGGCAAAGUUGCUGUGGCUAGACUGCC [A6G G7U C13U G29U] as the variant, how does the self-cleavage read?
**A.** Its self-cleavage is 0.08.

**Q.** Which self-cleavage does the source give for GGCAGGGCUCAACACAGGGUGGCAAAGUGGCUGUGGCUAGUCUGCC [A6G C18G A41U] here?
**A.** Its self-cleavage is 0.04.

**Q.** Which self-cleavage does the source give for GGCAGGGCUCAACACAGCGUGCCAAAGUGGCUGUGGCUAGACUGCU [A6G G22C C46U] here?
**A.** The self-cleavage was 0.02.

**Q.** For GGCAGGGCUCAACACAGCGUGGAAAAGUGGAUGUGGGUAGACUGCU [A6G C23A C31A C37G C46U], which self-cleavage is on record?
**A.** The self-cleavage was 0.03.

**Q.** For GGCAGGGCUCAACACAGCGUGACAGAGUGGCAGUGGCUAGACUGCC [A6G G22A A25G U32A], which self-cleavage is on record?
**A.** Its self-cleavage is 0.07.

**Q.** With GGCAGGGCUCAACACAGCGUGGCAAAUUGGCUGUGGUUAAACUGAC [A6G G27U C37U G40A C45A] as the variant, how does the self-cleavage read?
**A.** Its self-cleavage is 0.09.

**Q.** For GGCAGGCCUCAACACAGCAUGGCAAAGUGGCUGUGGCUAGACUGCC [A6G G7C G19A], which self-cleavage is on record?
**A.** The self-cleavage was 0.1.

**Q.** With GGCAGGGCUCAACACAACGUGGUAAAGUGGCUGUGGCUAGAAUGUG [A6G G17A C23U C42A C45U C46G] as the variant, how does the self-cleavage read?
**A.** The self-cleavage was 0.04.

**Q.** For GGCAGGCCUCAACACAGCGUGGCAAAGUGCCUGUGGCUCGACUGCC [A6G G7C G30C A39C], which self-cleavage is on record?
**A.** Its self-cleavage is 0.01.

**Q.** Which self-cleavage does the source give for GGCAGGGCUCAACACAUCGUGGCAAAGUGGCUGGGGCUCGACUGCC [A6G G17U U34G A39C] here?
**A.** The self-cleavage was 0.

**Q.** For GGCAGGGCUCAACACAGCGUGGCAAAGUGGCUGUGGCUACACUGCU [A6G G40C C46U], which self-cleavage is on record?
**A.** The self-cleavage was 0.08.

**Q.** For GGCAGGGCUCAACACAGGGUGGCAAAGUGGCUGUGGCUAGACUCCC [A6G C18G G44C], which self-cleavage is on record?
**A.** The self-cleavage was 0.05.

**Q.** With GGCAGGGCUCAACACAGCGUGGAGUAGUGGCUGUGGCUAGACUUCC [A6G C23A A24G A25U G44U] as the variant, how does the self-cleavage read?
**A.** Its self-cleavage is 0.03.

**Q.** Which self-cleavage does the source give for GGCAGGGCUCAACACAACGUGGUAAACUGGCUGGGGCUAGACUUCC [A6G G17A C23U G27C U34G G44U] here?
**A.** The self-cleavage was 0.59.

**Q.** With GGCAGGGCUCAACACAUCGUGGCAAAGUGGCUGUAUCUAGACUGCC [A6G G17U G35A G36U] as the variant, how does the self-cleavage read?
**A.** The self-cleavage was 0.34.

**Q.** Which self-cleavage does the source give for GGCAGGCCUCAAAACACCGUGGCCAACUGGCUGUGGCUAGACUGCC [A6G G7C C13A G17C A24C G27C] here?
**A.** Its self-cleavage is 0.04.

**Q.** Which self-cleavage does the source give for GGCAGGGCUCAACACAGCCAGGCAAAUUGGCUGUGGCUGGACUGCC [A6G G19C U20A G27U A39G] here?
**A.** Its self-cleavage is 0.

**Q.** For GGCAGGGCUCAACACAGGGUGGCAAAGUGGUUGUGGCUAGACUGCC [A6G C18G C31U], which self-cleavage is on record?
**A.** Its self-cleavage is 0.06.

**Q.** Which self-cleavage does the source give for GGCAGGGCUCAACACACCGUGGCAAAGGGGCUGUGGCUAGACGGCC [A6G G17C U28G U43G] here?
**A.** The self-cleavage was 0.

**Q.** For GGCAGGGCUCAACACAGCGUAGCAAAGAUGCUGUGGCUAGACUGCC [A6G G21A U28A G29U], which self-cleavage is on record?
**A.** Its self-cleavage is 0.03.

**Q.** For GGCAGGGCUCAACACAGCGUGACAAAGUGGCUGUGACUAGACUGCC [A6G G22A G36A], which self-cleavage is on record?
**A.** The self-cleavage was 0.56.

**Q.** Which self-cleavage does the source give for GGCAGGGCUCAACACAGCUUGGCAAAGGGGCUGUGGCUAGACUGCC [A6G G19U U28G] here?
**A.** The self-cleavage was 0.05.

**Q.** Which self-cleavage does the source give for GGCAGGGCUCAACACAGCGUAGCGAAGUGGCGGCGGCUAGACUGCC [A6G G21A A24G U32G U34C] here?
**A.** Its self-cleavage is 0.25.

**Q.** For GGCAGGUCUCAACACAGCGUGGCAAAGUGGCUGUGGCUAUACUGGC [A6G G7U G40U C45G], which self-cleavage is on record?
**A.** The self-cleavage was 0.26.

**Q.** For GGCAGGGCUCAACACAGCGUGGCAAAGUGGCUGUUGCUAGUCUGCU [A6G G35U A41U C46U], which self-cleavage is on record?
**A.** Its self-cleavage is 0.02.

**Q.** Which self-cleavage does the source give for GGCAGGGCUCAACACAGCGUGGCAAAGUGGCUGUGGAUAGACUUCC [A6G C37A G44U] here?
**A.** Its self-cleavage is 0.05.

**Q.** For GGCAGGGCUCAACACAGUGUGGCAAAGUGGCUGCGGCUAGACUGCC [A6G C18U U34C], which self-cleavage is on record?
**A.** Its self-cleavage is 0.03.

**Q.** For GGCAGGGCUCAACACAGCGUGGCAAAGUGGUUGUGGCUGGACUGCC [A6G C31U A39G], which self-cleavage is on record?
**A.** The self-cleavage was 0.01.
